# This is one part of the list.
# B1: PhoQ; a variant is named by its letters at X, in order, P23837 (parent)
# chain: MKKLLRLFFPLSLRVRFLLATAAVVLVLSLAYGMVALIGYSVSFDKTTFRLLRGESNLFYTLAKWENNKLHVELPENIDKQSPTMTLIYDENGQLLWAQRDVPWLMKMIQPDWLKSNGFHEIEADVNDTSLLLSGDHSIQQQLQEVREDDDDAEMTHSVAVNVYPATSRMPKLTIVVVDTIPVELKSSYMVWSWFIYVLSANLLLVIPLLWVAAWWSLRPIEALAKEVRELEEHNRELLNPATTRELTSLVRNLNRLLKSERERYDKYRTTLTDLTHSLKTPLXXLQXXLRSLRSEKMSVSDAEPVMLEQISRISQQIGYYLHRASMRGGTLLSRELHPVAPLLDNLTSALNKVYQRKGVNISLDISPEISFVGEQNDFVEVMGNVLDNACKYCLEFVEISARQTDEHLYIVVEDDGPGIPLSKREVIFDRGQRVDTLRPGQGVGLAVAREITEQYEGKIVAGESMLGGARMEVIFGRQHSAPKDE
# Variants of: B1
# Test: enrichment ratio after two sorts for PhoP signalling (ratio (wild type AVST 3.29)); higher = more functional
# Conditions: with PhoP (E. coli)
row,Variant,enrichment ratio
1,HQTK,≤ 0.25
2,KTIV,≤ 0.25
3,FFVQ,≤ 0.25
4,DPYP,≤ 0.25
5,IVLC,≤ 0.25
6,GMPF,≤ 0.25
7,VINN,≤ 0.25
8,RLHS,≤ 0.25
9,KSVM,≤ 0.25
10,HARC,≤ 0.25
11,QIFG,≤ 0.25
12,LVHF,≤ 0.25
13,FDKV,≤ 0.25
14,QARL,≤ 0.25
15,NEFW,≤ 0.25
16,WVTG,≤ 0.25
17,TKQF,≤ 0.25
18,MSPK,≤ 0.25
19,NGKI,≤ 0.25
20,VKLE,≤ 0.25
21,MLKN,≤ 0.25
22,SMQN,≤ 0.25
23,YVTF,≤ 0.25
24,SHYA,≤ 0.25

row,Variant,enrichment ratio
1,WQGI,≤ 0.25
2,PWPW,≤ 0.25
3,FNTF,≤ 0.25
4,FPWC,≤ 0.25
5,GRKK,≤ 0.25
6,LKVD,≤ 0.25
7,EFGA,≤ 0.25
8,MTFG,≤ 0.25
9,HKTV,≤ 0.25
10,CASL,≤ 0.25
11,RYGK,≤ 0.25
12,NRFY,≤ 0.25
13,RHLG,≤ 0.25
14,KLSC,≤ 0.25
15,KDHE,≤ 0.25
16,AGIK,3.7
17,PFFL,≤ 0.25
18,SDHM,≤ 0.25
19,FITM,≤ 0.25
20,DNIY,≤ 0.25
21,LSPF,≤ 0.25
22,KAGT,≤ 0.25
23,NNHF,≤ 0.25
24,RQHV,≤ 0.25

row,Variant,enrichment ratio
1,RRQW,≤ 0.25
2,YYHR,≤ 0.25
3,AYTY,≤ 0.25
4,WYKP,≤ 0.25
5,AFAT,≤ 0.25
6,RGAF,≤ 0.25
7,LRRD,≤ 0.25
8,RPML,≤ 0.25
9,QNCC,≤ 0.25
10,YGEL,≤ 0.25
11,NNPH,≤ 0.25
12,YVDM,≤ 0.25
13,PQHW,≤ 0.25
14,FLGR,≤ 0.25
15,ENLG,≤ 0.25
16,SDCS,5.14
17,SILT,9.39
18,IRHC,≤ 0.25
19,MEKL,≤ 0.25
20,PVEG,≤ 0.25
21,WERL,≤ 0.25
22,TSDG,0.59
23,LCKG,≤ 0.25
24,AMYY,≤ 0.25

row,Variant,enrichment ratio
1,LNEM,≤ 0.25
2,LLVP,≤ 0.25
3,SLSQ,6.85
4,WISG,≤ 0.25
5,ILDY,≤ 0.25
6,HMKP,≤ 0.25
7,WGRM,≤ 0.25
8,WNLG,≤ 0.25
9,LNML,2.48
10,WVPT,≤ 0.25
11,HWVN,≤ 0.25
12,LNEQ,≤ 0.25
13,ICAA,≤ 0.25
14,KTYH,≤ 0.25
15,EGQF,≤ 0.25
16,DPFE,≤ 0.25
17,KKIQ,≤ 0.25
18,VGSI,1.1
19,PRHK,≤ 0.25
20,IHWP,≤ 0.25
21,MHGF,≤ 0.25
22,IQFS,≤ 0.25
23,DTGE,≤ 0.25
24,MMLP,≤ 0.25

row,Variant,enrichment ratio
1,GTTS,≤ 0.25
2,AMIQ,≤ 0.25
3,VTQV,≤ 0.25
4,WWFK,≤ 0.25
5,EQNG,≤ 0.25
6,QAAS,≤ 0.25
7,NHMP,≤ 0.25
8,MGQY,≤ 0.25
9,MHSV,≤ 0.25
10,DKQH,≤ 0.25
11,INRQ,≤ 0.25
12,YYFY,≤ 0.25
13,LGQH,≤ 0.25
14,REEY,≤ 0.25
15,IMIN,≤ 0.25
16,PSWF,≤ 0.25
17,VCVK,≤ 0.25
18,NNLA,≤ 0.25
19,EKIC,≤ 0.25
20,PFDS,≤ 0.25
21,HAGM,≤ 0.25
22,KRCP,≤ 0.25
23,GHCA,≤ 0.25
24,NKEL,≤ 0.25

row,Variant,enrichment ratio
1,GAMY,≤ 0.25
2,QVHW,≤ 0.25
3,TWDL,≤ 0.25
4,YFFR,≤ 0.25
5,SIME,2.93
6,LHTW,≤ 0.25
7,NDCV,≤ 0.25
8,EPIM,≤ 0.25
9,YEIA,0.354
10,WLHI,≤ 0.25
11,FLIV,≤ 0.25
12,WLLT,≤ 0.25
13,FHRL,≤ 0.25
14,TIVG,≤ 0.25
15,KCPW,≤ 0.25
16,FWVY,≤ 0.25
17,HSLE,≤ 0.25
18,VRTA,≤ 0.25
19,AFVM,≤ 0.25
20,LGAL,≤ 0.25
21,MEIF,≤ 0.25
22,LVFM,≤ 0.25
23,TLHA,≤ 0.25
24,KPVQ,≤ 0.25

row,Variant,enrichment ratio
1,QYAE,≤ 0.25
2,QSWK,≤ 0.25
3,NEVQ,≤ 0.25
4,SWHP,≤ 0.25
5,AWMD,≤ 0.25
6,NGSA,≤ 0.25
7,QELS,≤ 0.25
8,SICV,16.6
9,ELTT,≤ 0.25
10,NTCP,≤ 0.25
11,KNWM,≤ 0.25
12,PHMS,≤ 0.25
13,FYQC,≤ 0.25
14,THPP,≤ 0.25
15,HPNM,≤ 0.25
16,YWWF,≤ 0.25
17,SMIG,0.688
18,VDYD,≤ 0.25
19,IFCG,≤ 0.25
20,YGCF,≤ 0.25
21,IYLN,≤ 0.25
22,YKPM,≤ 0.25
23,TTVE,≤ 0.25
24,TKWL,4.57

row,Variant,enrichment ratio
1,NWED,≤ 0.25
2,EPTL,≤ 0.25
3,MMPV,≤ 0.25
4,MFQM,≤ 0.25
5,SNKT,≤ 0.25
6,LCSN,≤ 0.25
7,RGTM,≤ 0.25
8,VRPH,≤ 0.25
9,HDNY,≤ 0.25
10,TLAE,≤ 0.25
11,DDMD,≤ 0.25
12,VHIA,≤ 0.25
13,ENVP,9.36
14,LCFY,≤ 0.25
15,TGYY,22.5
16,YWGN,≤ 0.25
17,PHKW,≤ 0.25
18,QDLV,≤ 0.25
19,IKPP,≤ 0.25
20,LRGE,≤ 0.25
21,LHIN,≤ 0.25
22,VWVR,≤ 0.25
23,ACFL,≤ 0.25
24,HHRF,≤ 0.25

row,Variant,enrichment ratio
1,TMPS,≤ 0.25
2,YLFT,≤ 0.25
3,DIKP,≤ 0.25
4,IKRK,≤ 0.25
5,LAVE,≤ 0.25
6,NDRI,≤ 0.25
7,VGCC,4.93
8,KGGV,≤ 0.25
9,RVGP,≤ 0.25
10,FYWF,≤ 0.25
11,NFLW,≤ 0.25
12,FTRY,≤ 0.25
13,ELQM,≤ 0.25
14,GINF,1.84
15,WNTI,≤ 0.25
16,YMPD,≤ 0.25
17,NYYT,≤ 0.25
18,NQTV,≤ 0.25
19,YAER,≤ 0.25
20,RQLI,≤ 0.25
21,GFPD,≤ 0.25
22,RDYT,≤ 0.25
23,IWET,≤ 0.25
24,IMSG,≤ 0.25

row,Variant,enrichment ratio
1,DIIE,≤ 0.25
2,HDGV,≤ 0.25
3,HEQP,≤ 0.25
4,IHPM,≤ 0.25
5,VNTS,≤ 0.25
6,EVSG,≤ 0.25
7,HLHP,≤ 0.25
8,VFKD,≤ 0.25
9,AEAD,≤ 0.25
10,VITF,≤ 0.25
11,PNWK,≤ 0.25
12,NFRC,≤ 0.25
13,WNMG,≤ 0.25
14,PCYP,≤ 0.25
15,SMYQ,≤ 0.25
16,KAKY,≤ 0.25
17,MMVG,≤ 0.25
18,FPAL,≤ 0.25
19,HQCV,≤ 0.25
20,TFPC,≤ 0.25
21,NCGT,≤ 0.25
22,ECCK,≤ 0.25
23,PWRR,≤ 0.25
24,FLGK,≤ 0.25

row,Variant,enrichment ratio
1,NCMP,≤ 0.25
2,QDVW,≤ 0.25
3,GFDE,≤ 0.25
4,KYAN,≤ 0.25
5,ACYS,0.536
6,TFTT,≤ 0.25
7,MYQD,≤ 0.25
8,IAMI,8.99
9,MRTE,≤ 0.25
10,MFMI,≤ 0.25
11,HQFG,≤ 0.25
12,EQWY,≤ 0.25
13,TCII,≤ 0.25
14,TPLE,≤ 0.25
15,AEYC,5.28
16,LVWY,≤ 0.25
17,WHHW,≤ 0.25
18,SNVM,4.8
19,ESNN,≤ 0.25
20,SMWM,≤ 0.25
21,DPLG,≤ 0.25
22,DETI,≤ 0.25
23,FFTQ,≤ 0.25
24,SQCY,12.2

row,Variant,enrichment ratio
1,YCSK,0.633
2,RGDG,≤ 0.25
3,RTMY,≤ 0.25
4,MKIG,≤ 0.25
5,FMIV,≤ 0.25
6,SCFN,≤ 0.25
7,GSEI,≤ 0.25
8,SYAT,0.272
9,TFPR,≤ 0.25
10,HKPA,≤ 0.25
11,PNNC,≤ 0.25
12,RGGV,≤ 0.25
13,FKHT,≤ 0.25
14,QGKL,≤ 0.25
15,SEGQ,≤ 0.25
16,LPPE,≤ 0.25
17,SRSV,≤ 0.25
18,ICQP,≤ 0.25
19,PAKL,≤ 0.25
20,WRYK,≤ 0.25
21,GRPG,≤ 0.25
22,KFLG,≤ 0.25
23,ETEK,≤ 0.25
24,DQRQ,≤ 0.25

row,Variant,enrichment ratio
1,NLWD,≤ 0.25
2,HGYR,≤ 0.25
3,LIKN,≤ 0.25
4,EGPN,≤ 0.25
5,AIQY,≤ 0.25
6,MICL,7.38
7,VVVP,≤ 0.25
8,LLYV,≤ 0.25
9,VMTN,≤ 0.25
10,FSQE,≤ 0.25
11,STID,≤ 0.25
12,GSCG,≤ 0.25
13,NCWN,≤ 0.25
14,QMRC,≤ 0.25
15,LMEK,≤ 0.25
16,DFCV,≤ 0.25
17,VVLH,≤ 0.25
18,TMIP,≤ 0.25

# — a collection of fitness landscapes (doi:10.1126/science.1257360)
